Source: the RNAGym collection of RNA variant scans (doi:10.1093/nar/gkz1192)
Read counts are not given, so values of variants with three or more changes are uncertain.

B1: CPEB3 Ribozyme (parent)
chain: UAACAGGGGGCCACAGCAGAAGCGUUCACGUCGCAGCCCCUGUCAGAUUCUGGUGAAUCUGCGAAUUCUGCUGUAUAUCUC

Variants of: B1
Assay: self-cleavage, relative activity (ratio to wild type); higher = more cleavage; in vitro, sequencing
Procedure, shortened: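 Relative activity was defined as the cleaved/total read fraction for a variant divided by the same fraction for the unmutated ribozyme. CPEB3 self-cleaving ribozyme libraries were made by rounds of error-prone PCR, barcoded, and transcribed in vitro with T7 RNA polymerase for 5 hours at 37°C, and cleavage ran through transcription plus a 15 min DNase I step before EDTA. Illumina sequencing of template-switched reverse transcripts gave the reads, and DNA sequencing mapped the barcodes. Averages come from three batches, using variants with at least 5 reads.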

Row | Variant | self-cleavage
1 | UAACAGGGGGCCAAAGCAGAAGCGUUCACGUCGCAGCCCCUGUCAGACUCUGGUGAAUCUGCGAAUUCUGCCGUUUAUCUC | 0.9
2 | UAACAGGGGGCCAGCGCAGAAGCGUUCACGUCGCAGUCCCUGUCAGAUUCUGGUGAAUCUGCGAAUUCGGCUGUAUAUCUC | 0.06
3 | UAACAGGGGGCCAGGGCAGCAGCGUUCACGUCGCAGCCCCUGUCAGAUUCUGGUGAAUCUGCGAAUUCUGCUGUAUAUUUC | 0.13
4 | UAACAGGGGGCCAGGGCAGAAGCGUUCACGACGCAGCCCCUGUCAGAUUCUGGUGAAUCCGCGAGUUCUGCUGUAUAUCCC | 0.08
5 | UAACAGGGGGCCAGGGCAGAAGCGUUCACGUCGCAGCCCCUGUCAGAUUCUGGUGAAUCUGCGAAUUCUGCCGUAUGACUC | 1.27
6 | UAACAGGGGGCCAGAGCGGCAGCGUUCACGUCGCAGCCCCUGUCAGAUUCUGGUGAAUCUGCGAAUUCUGCUGUAUAUCUC | 0
7 | UAACAGGGGGCCAGAGCAGAGGCGUUCACGUCGCAGCCCCUGUCAGAUUCUGGUGGGUCUGCGAAUACUGCUGUAUAUCUC | 0.31
8 | UAACAGGGGGCCAGAGCAGAGGCGUACACGUCGCAGCCCCUGUCAGAUUCUGGUGAAUCCGCGAACUCCGCUGUAAAUCUC | 0.09
9 | UAACAGGGGGCCAGAGCAGAAGCGCUCACGACGCCGCCACUGUCAGAUUCUGGUGAAUCUGCGAAUUCUGCUGUAUACCUC | 0.16
10 | UAACAGGGGGCCAUCGCAGAAGCGUUCACGUCGCUGCCCCUGUCAGAUUCUGGUGAAUCCGCGAAUUCCGCUGUAUAUCUC | 0.09
11 | UAACAGGGGGCCAUGGCGGAAGCGUUCACGUCGCAGCCCCUGUCAGAUUCUGGUGAAUCUGCGAAUUCUGCUGUAUAUCUC | 0.15
12 | UAACAGGGGGCCAUGGCAGAAGCGUUCACGUCGCUGCCCCUGUCAGAUUCUGGUGAAUCUGCGAAUUCUGCUGUAUAUCUC | 1.07
13 | UAACAGGGGGCCAUGGCAGAAUCGUCCACGUCGCAGCCCCUGUCAGAUUCUGGUGAAUGUGCGAAUUCUGCUGUAUAUCUC | 0.24
14 | UAACAGGGGGCCAUGGCAGAAGCAUUCACGUCGCAGCCCCUGUCAGAUUCUGGUGAAUCAGCGAACUCUGCUGUAUAUCUC | 0.1
15 | UAACAGGGGGCCAUGGCAGAAGCGUUCACAUCGCAGCCCCUGUCAGAUUCUGGUGAAUCUGCGGAUUCUGCUGUAUAUCUC | 0.22
16 | UAACAGGGGGCCAUGGCAGAAGCGUUCACGCCGCAGCCCCUGUCAGAUUCUGGUGAAUCUGCGAAUUCUGCUGUAUAUCUC | 0.42
17 | UAACAGGGGGCCAUUGCAGAAGCGUUCACGUCGCAGCCCCUGUCAGAUUCUGGUGAAUCUGCGAAUUCUGCAGUAUAUCUC | 1.15

Row | Variant | self-cleavage
18 | UAACAGGGGGCCAUAGCUGAAGCGUUCAUGACGCAGCCCCUGUCAGAUUCUGGUGAAUCUGCGAAUUCUGCUGUAUAUCUC | 0.07
19 | UAACAGGGGGCCAUAGCAGGAGCGUUCACGUCGCAGCACCUGUCAGAUUCUGGUGGAUCUGCGAACUCUGAUGUAUAUCCC | 0.04
20 | UAACAGGGGGCCAUAGCAGGAGCGUUCACAUCGCAGCCCCUGUCAGAUUCUGGUGAAUCUGCGAAUUCUGCUGUAUGUCUC | 0.16
21 | UAACAGGGGGCCAUAGCAGGAGCGUACACGUCGCAGCCCCUGUCAGAUUCUGGUGAAUCUGCGAAUUCUGCUGUAUAUCUC | 0.85
22 | UAACAGGGGGCCAUAGCAGUAGCGUUCGCGUCGCGGCCCCUGUCAGAUUCUGGUGAAUCUGCGAGUUCUGCUGUAUAUCUC | 0.12
23 | UAACAGGGGGCCAUAGCAGUAGCGUCCACGUCGCAGCCCCUGUCAGAUUCUGGUGAAACUGCGAAUUCUGCUGUAUAUCUC | 0.15
24 | UAACAGGGGGCCAUAGCAGAGGCGUUCACGUCGCAGCCCCUGUCAGGUUCUGGUGAAUCUGCGAAUUCUGCUGUAUAUCUC | 0.91
25 | UAACAGGGGGCCAUAGCAGAGGCGCUCACGUCGCAGCUCCUGUCAGAUUCUGGUGAGUCUGCGAAUUCUGCUGUAUACCUC | 0.09
26 | UAACAGGGGGCCAUAGCAGAUGCGUCCGCGUCGCAGCCCCUGUCAGAUUCUGGUGAAUCUGCGAAUUCUGCCGUAUAUCUC | 0.28
27 | UAACAGGGGGCCAUAGCAGAAGCGUUCGCGUCGCAGCCCCUGUCAGGUUCUUGUGAAUCUGCGAAUUCUGCUGUAUAUCUC | 0.88
28 | UAACAGGGGGCCAUAGCAGAAGCGUUCGCGUCGCAGCCCCUGUCAGAUUCUGGCGAAUCUGCGAGUUCUGCUGUAUAUCUC | 0.13
29 | UAACAGGGGGCCAUAGCAGAAGCGUUCACGUCGCGGCCCCUGUCAGAUUCUGGUGAAUCUGCGGGCUCUGCUGUAUAUCUC | 0.63
30 | UAACAGGGGGCCAUAGCAGAAGCGUUCACGUCGCGGCCCCUGUCAGAUUCUGGUGAAUCUGCGAAUUCUGCUGUGCAUCUC | 1.3
31 | UAACAGGGGGCCAUAGCAGAAGCGUUCACGUCGCGGCCCCUGUCAGAUUCUGGUGAAUCUGCGAAUUCUACUGUAUAUCUC | 1.19
32 | UAACAGGGGGCCAUAGCAGAAGCGUUCACGUCGCGGCCCCUGCCAGAUUCAGGUGAAUCUGCGAAUUCUGCUGUAUAUCUC | 1.31
33 | UAACAGGGGGCCAUAGCAGAAGCGUUCACGUCGCGGCCCCUGUCAGAUCCUGGUGGAUCUGCGAAUUCUGCUGUAUAUCUC | 1.3
34 | UAACAGGGGGCCAUAGCAGAAGCGUUCACGUCGCGGCCCCUGUCAGAUUCCGGUGAAUCUGCGAAUUCUGCUGUAUAUCUC | 1.28
